# In PubChem BioAssay AID2546 (National Center for Advancing Translational Sciences (NCATS), 2010):
# Hit rate of the full screen: of about 310,000 compounds, about 11,000 (3.5%) were called active. This list was built around the results that the source calls inconclusive (neither active nor inactive); the mix of calls is not that of the screen. Calls come from the whole dose curve; as a rule, active = well fitted inhibition curve with a large enough effect; inconclusive = small, poorly fitted or top-dose-only effect, or effect the other way; inactive = flat fitted curve, though single readings scatter. No potency is given beside an inconclusive call; the fits are too rough.
# Experiment: VP16 counterscreen qHTS for inhibitors of ROR gamma transcriptional activity;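 note: Gal4-VP16 expression switched on by copper sulfate through the metallothionein promoter; nearly all actives have a fitted effect of over 50% in size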
# Conditions: Drosophila S2 Gal4-VP16 UAS-luciferase, luminescence, 20 h; activity, negative = inhibition: at 53.6 µM (top of the series)
# % is set by controls: 0 for no effect and ±100 for the full control effect; potency is the fitted concentration of half-maximal effect; tags give direction and shape of the fitted curve.
Structure (SMILES),"activity, negative = inhibition",Potency
O=C(N[C@@H](Cc1c[nH]c2ccccc12)C(=O)O)C1CCN(S(=O)(=O)c2cccs2)CC1,inactive: 2.14%,
c1cc2c(cc1Nc1nc(-c3ccc4c(c3)OCO4)cs1)OCCO2,,"inconclusive [activator, full curve, poor fit]"
S=c1[nH]nc(-c2ccccc2Cl)n1/N=C/C=C/c1ccco1,inactive: -16.3%,
COc1ccc(NC(=O)c2cccc(S(=O)(=O)N3CCc4ccccc43)c2)cn1,,"inconclusive [inhibitor, single point]"
CCOC(=O)c1ccc(N=C2C(=S)N(c3ccc(C(=O)OCC)cc3)C(=N)N2/N=C/c2ccccc2)cc1,,"inconclusive [inhibitor, single point]"
COC(=O)CN1C(=S)N(Cc2ccccc2)C(=O)C1CC(=O)Nc1ccc(OC)cc1 (stereo not drawn),,"inconclusive [activator, single point]"
Cc1cc(C)c(S(=O)(=O)N2CCOCC2)c(C)c1N(C)S(=O)(=O)c1ccccc1,inactive: -8.81%,
COCc1nnc(NC(=O)c2c(-c3c(Cl)cccc3Cl)noc2C)s1,,"inconclusive [inhibitor, single point]"
O=C1CCCN1c1ccc(S(=O)(=O)NCCOc2ccccc2)cc1,,"inconclusive [inhibitor, partial curve]"
CCCCn1c(-c2csc3c2CCCC3)n[nH]c1=S,,"inconclusive [inhibitor, full curve]"
CCN(CC)C(=O)Oc1ccc2c(=O)c(-c3ccccc3)coc2c1,,"inconclusive [inhibitor, single point]"
COCCN(C(=S)Nc1cccc(C)c1C)C(C)c1ccco1 (stereo not drawn),,"inconclusive [inhibitor, single point]"
O=[N+]([O-])c1ccccc1S(=O)(=O)Nc1nc2ccccc2s1,inactive: 5.22%,
COc1ccc(/C=N/N2CCN(Cc3ccccc3)CC2)cc1,inactive: 0.119%,
O=C(N/N=C/c1c[nH]c2ccccc12)c1cc(-c2cccc3ccccc23)n[nH]1,,"inconclusive [inhibitor, single point]"
O=c1c2ccccc2[nH]c(=S)n1Cc1cccnc1,,"inconclusive [inhibitor, single point]"
CCN1C(=C2C(=O)c3ccccc3C2=O)C=Cc2ccccc21,,"inconclusive [activator, full curve, poor fit]"
Cc1ccc(-n2c(SCC(=O)N3CCC(C(=O)O)CC3)nc3ccccc3c2=O)cc1C,,"inconclusive [inhibitor, partial curve]"
